# Measured values reported in the RNAGym collection of RNA variant scans (doi:10.1101/gad.245936.114).
# Variants at the background level are over-represented here.
# B1: tRNA (parent)
# chain: CUCUCGGUAGCCAAGUUGGUUUAAGGCGCAAGACUUUAAUUUAUCACUACGAAAUCUUGAGAUCGGGCGUUCGACUCGCCCCCGGGAGAUUUUUUCCUCGAGCAA
# Variants of: B1
# Test: nonsense suppression (GFP-seq) (ratio to wild type); higher = more function; SUP4oc tRNA, yeast GFP reporter sort-seq
# Summary of the method: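 To measure nonsense suppression, tRNA variants from a library carrying ~3% random mutations were integrated into the yeast genome alongside RFP and a GFP ochre reporter under galactose control. Growth took place in raffinose/galactose medium supplemented with 80 mg/L adenine, followed by sorting into GFP/RFP bins and Illumina sequencing of each bin (phred ≥30). For each variant with ≥100 reads and ≥30 cells, the bin median GFP/RFP values were weighted by its estimated cell share per bin and referenced to the unmutated parent tRNA.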
row,Variant,nonsense suppression
1,CUCUCGGUAGCCAAGUUGGUUCAAGGCGCAAGACUUUAAUUUAUCACUACGAAAUCUAGAAAUCGGGCGUGCGACUCGCCCCCGGGAGAUUUUUUCCUCGAGCAA,≤ 0.026
2,CUCUCGGUAGCCAAGUUGGUUGACGGCGCAAGACUUUAAUUUAUCACUACGAAAUCUUGAGAUCGGGCGUUCGACUCGCCCCCGGGAGAUUUUUUCCUCGAGCAA,0.817
3,CUCUCGGUAGCCAAGUUGGUUCAAGGCGCAAGACUUUAAUUUAUCACUACGAAACCGUGAGAUCGGGCGUUCGACUCGCCCCCGGGAGAUUUUUUCCUCGAGCAA,≤ 0.026
4,CUCUCGGUAGCCAAGUUGGUUGAAGGCGCAAGACUUUAAUUUAUCACUACGAAUUCUUGAGAUCGGGCGUUCGACUCGCCCCCGGGAGAUUUUUUCCUCGAGCAA,1.12
5,CUCUCGGUAGCCAAGUUGGUUCAAGGCGUAAGACUUUAAUUUAUCACUACGAAAUCUUGAGAUCGAGCGUUCGACGCGCCCCCGGGAGAUUUUUUCCUCGAGCAA,≤ 0.026
6,CUCUCGGUAGCCAAGUUGGUUCAAGGCGCAAGACGUUAAUUUAUCACUACGAAAUUUUGAGAUCGGGCGUACGACUCGCCCCCGGGAGAUUUUUUCCUCGAGCAA,≤ 0.026
7,CUCUCGGUAGCCAAGUUGGUUCAAGACGCAAGACUUUAAUUUAUCACUACGAAAUCUUGAGAUCGGGCGUUCCACUCGCCCCCGGGAGAUUUUUUCCUCGAGCAA,≤ 0.026
8,CUCUCGGUAGCCAAGUUGGUUGCAGGCGCAAGACUUUAAUUUAUCACUACGAAAUCUUGAGAUCGGGCGUUCGACUCGCCCCGGGGAGAUUUUUUCCUCGAGCAA,≤ 0.026
9,CUCUCGGUAGCCAAGUUGGUUGAAGGCGCAAGGCUUUAAUUUAUCACUACGAAGUCUUGAGAUCGGGCGUUCGAGUCGCCCCCGGGAGAUUUUUUCCUCGAGCAA,≤ 0.026
10,CUCUCGGUAGCCAAGUUGGUUCAAGGCGCAAGACUUUAAUUUAUCACUACGAAAUCUUGAGAUCGGGCGUUAGACUCGCCCCCGGGAGAUUUUUUCCUCGAGCAA,≤ 0.026
11,CUCUCGGUAGCCAAGUUGGUUCAAGGCGCAAGACUUUAAUUUAUCACUACGAAAUCUUGAGGUCGGGCGUUCAACUCGCCCCCGGGUGAUUUUUUCCUCGAGCAA,≤ 0.026
12,CUCUCGGUAGCCAAGUUGGUUCAAGGCGCAAGACUUUAAUUUAUCACUACGAAAUCUUAAGAUCGGGCGUUCGACUUGCCCCCGGGAGAUUUUUUCCUCGAGCAA,≤ 0.026
13,CUCUCGGUAGCCAAGUUGGUUGAAGGCGCAAGUCUUUAAUUUAUCACUACGAAAUCUUGAGAUCGGGCGUUCGAAUCGCCCCCGGGAGAUUUUUUCCUCGAGCAA,≤ 0.026
14,CUCUCGGUAGCCAAGUUGGUUCAAGGCGCAAGACUUUAAUUUAUCACUACGAAAUCUUGAGAUCGGGCGUCCGACUCGCCUCCGGGAGAUUUUUUCCUCGAGCAA,≤ 0.026
15,CUCUCGGUAGCCAAGUUGGUUGAAGGCGCAAGACUUUAAUUUAUCACUACGAAAUCUUGAGAUCGGGCGUUCGCCUCGCCCCCGGGAGAUUUUUUCCUCGAGCAA,≤ 0.026
16,CUCUCGGUAGCCAAGUUGGUUCAAGGCGCAAGACUUUAAUUUAUCACUACGAAAUAUUGACAUCGGGCGUUCGACUCGCCCCCGGGAGAUUUUUUCCUCGAGCAA,≤ 0.026
17,CUCUCGGUAGCCAAGUUGGUUCAAGUCGCAAGACUUUAAUUUAUCACUACGAAAUCUGGAGAUCGGGCGCUCGACUCGCCCCCGGGAGAUUUUUUCCUCGAGCAA,≤ 0.026
18,CUCUCGGUAGCCAAGUUGGUUCAAGGCGCAAGACUUUAAUUUAUCACUACGAAAUCUUGAGAUCGGGCGUUCGACUCGCCCCAGGGAGAUUUUUUCCUCGAGCAA,≤ 0.026
19,CUCUCGGUAGCCAAGUUGGUUCAAGGCGUAAGACUUUAAUUUAUCACUACGAAAUCUUGAAAUCGGGCGUUCGACUCGCCCCCGGGAGAUUUUUUCCUCGAGCAA,0.386
20,CUCUCGGUAGCCAAGUUGGUUGAAGGCGCAAGACUUUAAUUUAUCACUACGAACUCUUGAGAUCCGGCGUUCGACUCGCCCCCGGGAGAUUUUUUCCUCGAGCAA,≤ 0.026
21,CUCUCGGUAGCCAAGUUGGUUCAAGGCGCAAGACCUUAAUUUAUCACUACGAAAUCUUGAGAUCGGGCGAUCGACUCGCCCCCGGGCGUUUUUUUCCUCGAGCAA,≤ 0.026
22,CUCUCGGUAGCCAAGUUGGUUGAAGGCGCAAGACUUUAAUUUAUCACUACGAACUCUUGAGAUCGCGCGUUCGACUCGCCCCCGGGAGAUUUUUUCCUCGAGCAA,≤ 0.026
23,CUCUCGGUAGCCAAGUUGGUUCAAGGCGCAAGACUUUAAUUUAUCACUACGAAAUCUUGAGACCGGGCAUUCGACUCACCCCCGGGAGAUUUUUUCCUCGAGCAA,≤ 0.026
24,CUCUCGGUAGCCAAGUUGGUUGAAGGCGCAAGACUUUAAUUUAUCACUACGAAAUCUUGAGAUCGGGCGUUCGACUCGCCCCCGGGGGAUUUUUUCCUCGAGCAA,0.886
25,CUCUCGGUAGCCAAGUUGGUUCAACGCGCAACACUUUAAUUUAUCACUACGAAAUCUUGAGCUGGGGCGUUCGACUCGCCCCCGGGAGAUUUUUUCCUCGAGCAA,≤ 0.026
26,CUCUCGGUAGCCAAGUUGGUUGAAGGCGCCAGGCUUUAAUUUAUCACUACGAAAUCUUGAAAUCGGGCGUUCGACUCGUCCCCGGGAGAUUUUUUCCUCGAGCAA,≤ 0.026
27,CUCUCGGUAGCCAAGUUGGUUGAAGGCGCAAGUCUUUAAUUUAUCACUACGAAAUCUUGAGAUCGGGCGUUCGACUCGCCCCCGGGAGAUUUUUUCCUCGAGCAA,≤ 0.026
